Molecules are shown by their SMILES. Screen size: about 310,000 compounds; about 14,000 (4.5%) showed an effect of 50% or more. The effect is printed as a negative number. This is one part of the list.
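Note: peak tail current of the secondary pulse compared with the same well before compound.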

The assay deals with human ether-à-go-go-related gene (hERG) potassium channel (human, UniProt Q12809). Put plainly: primary screen, population patch clamp on CHO cells stably expressing hERG.
Chain of human ether-à-go-go-related gene (hERG) potassium channel (Q12809 whole entry, looked up): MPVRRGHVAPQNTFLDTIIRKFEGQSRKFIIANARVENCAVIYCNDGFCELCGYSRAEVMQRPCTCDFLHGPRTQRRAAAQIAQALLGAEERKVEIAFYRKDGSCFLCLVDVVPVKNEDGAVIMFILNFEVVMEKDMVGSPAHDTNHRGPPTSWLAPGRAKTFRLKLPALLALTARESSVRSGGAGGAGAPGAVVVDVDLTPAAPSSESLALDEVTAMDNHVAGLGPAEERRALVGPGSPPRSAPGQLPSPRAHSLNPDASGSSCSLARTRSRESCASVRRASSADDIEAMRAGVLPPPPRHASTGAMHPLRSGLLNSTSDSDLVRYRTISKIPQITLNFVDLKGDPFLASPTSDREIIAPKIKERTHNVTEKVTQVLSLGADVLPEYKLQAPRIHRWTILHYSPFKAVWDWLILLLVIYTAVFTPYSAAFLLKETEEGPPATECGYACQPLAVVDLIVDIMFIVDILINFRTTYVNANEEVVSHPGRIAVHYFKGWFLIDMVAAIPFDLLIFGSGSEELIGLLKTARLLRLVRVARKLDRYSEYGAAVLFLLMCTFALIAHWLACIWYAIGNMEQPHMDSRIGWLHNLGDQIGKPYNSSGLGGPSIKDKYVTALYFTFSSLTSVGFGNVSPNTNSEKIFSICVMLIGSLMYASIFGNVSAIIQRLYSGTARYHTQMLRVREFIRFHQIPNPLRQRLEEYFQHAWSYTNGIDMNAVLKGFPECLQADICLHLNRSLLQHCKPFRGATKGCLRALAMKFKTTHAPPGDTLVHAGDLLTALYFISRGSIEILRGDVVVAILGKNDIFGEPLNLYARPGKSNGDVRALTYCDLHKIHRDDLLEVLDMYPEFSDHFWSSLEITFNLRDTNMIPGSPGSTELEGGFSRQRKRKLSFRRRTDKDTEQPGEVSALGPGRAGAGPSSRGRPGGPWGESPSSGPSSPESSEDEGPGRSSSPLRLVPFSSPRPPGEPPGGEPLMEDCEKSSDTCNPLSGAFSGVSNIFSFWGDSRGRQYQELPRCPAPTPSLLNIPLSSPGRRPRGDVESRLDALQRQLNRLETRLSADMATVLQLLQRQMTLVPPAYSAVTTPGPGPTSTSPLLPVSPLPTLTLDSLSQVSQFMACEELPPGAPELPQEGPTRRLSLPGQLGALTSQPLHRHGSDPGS
On to `COc1ccc(-c2cn3c(C)c(C(=O)Nc4cc(NC(C)=O)ccc4OC)sc3n2)cc1`, for which the “hERG current change (%, negative = inhibition) at 10uM” value is 4.22%.

In the case of `COc1ccc(CCNC(=O)C2CC(c3ccccc3F)=NO2)cc1` (stereo not drawn), the “hERG current change (%, negative = inhibition) at 10uM” value is reported as -8.86%. For `O=C(OCC(=O)N1CCN(C(=O)c2ccco2)CC1)c1cncc(Br)c1`, the “hERG current change (%, negative = inhibition) at 10uM” value worked out at 0.568%. With `CCOC(=O)C1=C(CN2c3ccccc3CC2C)NC(=O)NC1c1ccccc1` (stereo not drawn), the “hERG current change (%, negative = inhibition) at 10uM” value is recorded as -12.4%. `O=c1[nH]c(Nc2ccc3c(c2)OCCO3)nnc1Cc1ccccc1`: the “hERG current change (%, negative = inhibition) at 10uM” value is recorded as 12%. As for `Clc1ccc(-c2noc(CN3CCCC3)n2)cc1`, the “hERG current change (%, negative = inhibition) at 10uM” value was -15.1%.

In the case of `CC(=O)Nc1nc(N(C)C)nc(N(C)C)n1`, the “hERG current change (%, negative = inhibition) at 10uM” value turned out to be 62.4%.

In the case of `CCOC(=O)C1CCN(c2c(NC3CCCc4ccccc43)c(=O)c2=O)CC1` (stereo not drawn), the “hERG current change (%, negative = inhibition) at 10uM” value is -33.5%. To `COc1ccccc1NC(=O)c1c(NC(=O)c2ccco2)sc2c1CCC2` belongs 1.12%; to `CN(C)c1ccc(N=Nc2cccc(F)c2)cc1`, 0.778%. In the case of `CN(NC1OC(=O)c2ccccc21)c1ncc(Cl)cc1C(F)(F)F` (stereo not drawn) it was 23.3%.

In the case of `Cc1cc(Br)ccc1SCC(=O)N1CCN(S(=O)(=O)c2ccccc2)CC1`, the “hERG current change (%, negative = inhibition) at 10uM” value is on record as -5.23%. To `O=C(COC(=O)c1cc(=O)c2ccccc2o1)Nc1ccc2ccccc2c1` belongs 17.6%; to `CC(C)(C)S(=O)(=O)c1cnc(N2CCOCC2)nc1N`, 3.68%. On to `c1ccc2cc3[nH]c(CN4CCCCC4)nc3cc2c1`, for which the “hERG current change (%, negative = inhibition) at 10uM” value is -36.3%. In the case of `COc1ccc(-c2nc(CN3CCN(c4ncnc5ccccc45)CC3)c(C)o2)c(OC)c1` it was -66.8%; in that of `COc1cccc(NC(=O)C(c2ccccc2)N2CCN(c3ccccn3)CC2)c1` (stereo not drawn), 16.6%; in that of `C=CCn1c(SCC(=O)Nc2ccccc2C)nc2sc(C)c(C)c2c1=O`, 6.01%. On to `O=C(CNC(=O)c1ccc(Br)cc1)NCC(=O)OCc1ccc(Cl)cc1`, for which the “hERG current change (%, negative = inhibition) at 10uM” value is reported as 8.42%. Consider `COCc1cc(=O)n2[nH]c(C(F)(F)F)nc2n1`, for which the “hERG current change (%, negative = inhibition) at 10uM” value worked out at 10.4%. To `c1ccc(CCNc2nc(-c3ccncc3)cs2)cc1` belongs 4.56%; to `CCOC(=O)c1ccccc1NC(=S)N1CCC(N2CCCCC2)CC1`, -33.8%; to `O=C1CSC2=NCN(c3ccccc3)CN12`, 20.3%. To `Fc1cccc(-c2cc3nc4c(c(N5CCOCC5)n3n2)CCCC4)c1` belongs -24.1%; to `COc1cccc(NC(=O)CNC(=O)c2ccc([N+](=O)[O-])cc2)c1`, -11.4%. For the molecule `COc1cccc(S(=O)(=O)N2CCN(C(=O)c3ccco3)CC2)c1`, the “hERG current change (%, negative = inhibition) at 10uM” value turned out to be 9.1%.

Turning to `CC(C)NC(=O)COc1ccc(Cl)cc1Cl`, the “hERG current change (%, negative = inhibition) at 10uM” value is 2.51%. Consider `Cc1ccc(CN2CCN(Cc3nc4c(s3)CCCC4)CC2CCO)cc1` (stereo not drawn), for which the “hERG current change (%, negative = inhibition) at 10uM” value is on record as -55.3%.

For the molecule `O=C1CCCCCN1Sc1ccccc1`, the “hERG current change (%, negative = inhibition) at 10uM” value worked out at 12%. To `Cc1c2cnn(CC(=O)N3CCC4(CC3)OCCO4)c(=O)c2c(C)n1Cc1ccccc1F` belongs 6.7%; to `CC(=O)c1ccc(Nc2ncnc3c2oc2ccccc23)cc1`, 7.05%. Consider `Cc1cccc(-n2nc3c(c2NC(=O)c2ccco2)CS(=O)(=O)C3)c1C`, for which the “hERG current change (%, negative = inhibition) at 10uM” value is listed as -17.6%. `C[C@]12CC[C@@H]3c4ccc(O)cc4CC[C@H]3[C@@H]1CC[C@@H]2OC(=O)CCC1CCCC1`: the “hERG current change (%, negative = inhibition) at 10uM” value turned out to be 14%.

For `O=S(=O)(c1ccc(OCc2nc3ccccc3s2)c(Cl)c1)N1CCOCC1`, the “hERG current change (%, negative = inhibition) at 10uM” value was -6.73%.

For `CCn1nnnc1NCc1ccc(N2CCCC2)cc1`, the “hERG current change (%, negative = inhibition) at 10uM” value amounted to 3.6%.

In the case of `COc1ccc(-n2c(COc3cccc4ccccc34)nnc2SCC(=O)NCc2ccco2)cc1`, the “hERG current change (%, negative = inhibition) at 10uM” value is listed as -21%. In the case of `Cc1cc(C)c(S(=O)(=O)N2CCCCCC2)cc1Br` it was 7.45%; in that of `CNC(=O)COc1coc(CN2CCN(c3cccc(Cl)c3)CC2)cc1=O`, 1.16%. In the case of `CCCCN1C(=N)C(CC)(CC)C(=O)NC1=O.Cl` it was 29.6%. In the case of `CCCC(=O)Nc1cc(=O)n(C)c(=O)n1C` it was 0.627%; in that of `Br.COc1ccc(-c2cn3cc(Cl)ccc3n2)cc1OC`, 8.12%; in that of `Cc1csc(NC(=O)CSc2nnc(NC(=O)NC(C)(C)C)s2)n1`, 6.74%.

On to `O=C1c2ccccc2C(=O)N1Cc1nc2ccccc2c(=O)n1-c1ccc(Br)cn1`, for which the “hERG current change (%, negative = inhibition) at 10uM” value is -44.5%. On to `COc1ccc(NC(=O)c2oc3ccccc3c2NC(=O)C2CC2)cc1OC`, for which the “hERG current change (%, negative = inhibition) at 10uM” value is -6.88%.

As to `O=C(NCCCN1CCCC1=O)c1cccc(C(F)(F)F)c1`, the “hERG current change (%, negative = inhibition) at 10uM” value is given as -3%.

The values above are taken from publication PMC4336329 (PLoS ONE, 2015).
